# Test results: the supplement of paper PMC8728848
# The list shows a part of the results.
# Key:
# Assay in all cases: glycan array binding signal (z-score within array); higher = stronger binding
# Conditions in all cases: glycan notation: IUPAC condensed, linker removed
# [1] = target: Gal(b1-4)GlcNAc(b1-6)Gal(b1-4)GlcNAc
# In short: (§1)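 From the Consortium for Functional Glycomics database, 3228 arrays were curated, keeping only those whose protein sequence was available. Binding is given as a within-array Z-score averaged across arrays sharing a protein sequence and across linkers. Negative Z-scores can be read as non-binding.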
# [2] = target: Gal(b1-4)GlcNAc(b1-6)GalNAc
# In short: as §1
# [3] = target: Gal(b1-4)GlcNAc(b1-6)[Gal(b1-3)]GalNAc
# In short: as §1
# [4] = target: Gal(b1-4)GlcNAc(b1-6)[Gal(b1-4)GlcNAc(b1-3)]GalNAc
# In short: as §1
# Gal(b1-4)GlcNAc6P = target: Gal(b1-4)GlcNAc6P
# In short: as §1
# Gal(b1-6)Gal = target: Gal(b1-6)Gal
# In short: as §1
# Gal3S(b1-3)GalNAc = target: Gal3S(b1-3)GalNAc
# In short: as §1
# Gal3S(b1-3)GlcNAc = target: Gal3S(b1-3)GlcNAc
# In short: as §1
# [5] = target: Gal3S(b1-3)[Fuc(a1-4)]GlcNAc
# In short: as §1
# Gal3S(b1-4)Glc = target: Gal3S(b1-4)Glc
# In short: as §1
# Gal3S(b1-4)Glc6S = target: Gal3S(b1-4)Glc6S
# In short: as §1
# Gal3S(b1-4)GlcNAc = target: Gal3S(b1-4)GlcNAc
# In short: as §1
# [6] = target: Gal3S(b1-4)[Fuc(a1-3)]Glc6S
# In short: as §1
# [7] = target: Gal3S(b1-4)[Fuc(a1-3)]GlcNAc
# In short: as §1
# [8] = target: Gal3S(b1-4)[Fuc(a1-3)]GlcNAc6S
# In short: as §1
# Gal3S4S(b1-4)GlcNAc = target: Gal3S4S(b1-4)GlcNAc
# In short: as §1
# Gal3S6S(b1-4)GlcNAc = target: Gal3S6S(b1-4)GlcNAc
# In short: as §1
# Gal3S6S(b1-4)GlcNAc6S = target: Gal3S6S(b1-4)GlcNAc6S
# In short: as §1
# Gal4S(b1-4)GlcNAc = target: Gal4S(b1-4)GlcNAc
# In short: as §1
# Gal4S6S(b1-4)GlcNAc = target: Gal4S6S(b1-4)GlcNAc
# In short: as §1
# Gal6P(b1-4)GlcNAc = target: Gal6P(b1-4)GlcNAc
# In short: as §1
# Gal6S(b1-3)GlcNAc = target: Gal6S(b1-3)GlcNAc
# In short: as §1
# Gal6S(b1-3)GlcNAc6S = target: Gal6S(b1-3)GlcNAc6S
# In short: as §1
binder,measurement,setting,value
"CC1G-11630 (Coprinopsis cinerea), A8P462 (protein) MTTEAKIKLKAVVYWELVFDYDNSSNTGEITQSYTVKISQTSTRSTFASEVSTTTIDTLTKNNQEVDVGASYGAISANVSASWEHSEEVNNMLEKTTQTSTEDTYTVETEETRSYTIGPGGMLSLFQKHFSGPGMHVAFDVFTTDLELAKERTEIDIDVDVEAIRFVREIRVVYTDIMSEAPGDHVREINGKNPDINYGFNGKFVWLVPEQTRKTAQALTNVEFVSQAESDDRYWDLAAGAGGSNRYLIPVYDTNNKDKIYELALWRSDSYITHDKVKAAGWSGTTGDINSGRGGTYLNLVWKTRHAY",glycan array binding signal (z-score),[1],-0.475
same,glycan array binding signal (z-score),[2],0.779
same,glycan array binding signal (z-score),[3],-0.292
same,glycan array binding signal (z-score),[4],-0.119
same,glycan array binding signal (z-score),Gal(b1-4)GlcNAc6P,0.67
same,glycan array binding signal (z-score),Gal(b1-6)Gal,0.71
same,glycan array binding signal (z-score),Gal3S(b1-3)GalNAc,0.063
same,glycan array binding signal (z-score),Gal3S(b1-3)GlcNAc,0.098
same,glycan array binding signal (z-score),[5],-0.088
same,glycan array binding signal (z-score),Gal3S(b1-4)Glc,0.184
same,glycan array binding signal (z-score),Gal3S(b1-4)Glc6S,1.67
same,glycan array binding signal (z-score),Gal3S(b1-4)GlcNAc,0.478
same,glycan array binding signal (z-score),[6],0.565
same,glycan array binding signal (z-score),[7],-0.203
same,glycan array binding signal (z-score),[8],1.25
same,glycan array binding signal (z-score),Gal3S4S(b1-4)GlcNAc,3.27
same,glycan array binding signal (z-score),Gal3S6S(b1-4)GlcNAc,1.38
same,glycan array binding signal (z-score),Gal3S6S(b1-4)GlcNAc6S,2.52
same,glycan array binding signal (z-score),Gal4S(b1-4)GlcNAc,-0.377
same,glycan array binding signal (z-score),Gal4S6S(b1-4)GlcNAc,0.249
same,glycan array binding signal (z-score),Gal6P(b1-4)GlcNAc,-0.491
same,glycan array binding signal (z-score),Gal6S(b1-3)GlcNAc,-0.544
same,glycan array binding signal (z-score),Gal6S(b1-3)GlcNAc6S,0.275
